This is one part of the list.
system: HepG2; assay: cytotoxicity call (relative viability < 0.9); details: 10 µM

SMILES | cytotoxicity call
COC(=O)c1ccc2c(c1)NC(=O)CO2 | inactive
C[C@H](CO)N1C[C@H](C)[C@H](CN(C)S(C)(=O)=O)Oc2ccc(NC(=O)Nc3ccc4c(c3)OCO4)cc2CC1=O | inactive
C[N+](C)(C)CCCC[C@@H]1NC(=O)[C@@H]2C[C@H](C(=O)NCCCCCCNC(=O)CS)[C@H](c3ccc(O)cc3)N2C1=O | inactive
CO[C@@H]1CN(C)C(=O)c2cc(NC(=O)Nc3ccccc3)ccc2OC[C@@H](C)N(C(=O)CN(C)C)C[C@H]1C | inactive
CNC[C@@H]1OCCCC[C@@H](C)Oc2ccc(NC(=O)Nc3ccc(C(F)(F)F)cc3)cc2C(=O)N([C@H](C)CO)C[C@H]1C | inactive
C[C@H](CO)N1C[C@H](C)[C@H](CN(C)Cc2ccc(Oc3ccccc3)cc2)Oc2ccc(NC(=O)Nc3ccc4c(c3)OCO4)cc2CC1=O | active
OCc1cncnc1 | inactive
Cc1cc(C(=O)N2CCNC(=O)C2(C)C)no1 | inactive
C[C@H]1CN([C@@H](C)CO)C(=O)c2cc(C3=CCCCC3)cnc2O[C@@H]1CN(C)C(=O)CN1CCOCC1 | inactive
COc1ccc(NC(=O)N(C)C[C@H]2OCCCC[C@@H](C)Oc3ccc(NS(=O)(=O)c4ccccc4)cc3C(=O)N([C@H](C)CO)C[C@H]2C)cc1 | inactive
C[C@@H]1CN([C@@H](C)CO)C(=O)c2cccc(NC(=O)Nc3ccc(F)cc3)c2O[C@H]1CN(C)Cc1ccc(-c2ccccc2)cc1 | inactive
C[C@H](CO)N1C[C@H](C)[C@H](CN(C)S(=O)(=O)c2ccccc2)Oc2ncc(-c3ccc(F)cc3)cc2C1=O | inactive
C[C@@H]1CCCCO[C@H](CN(C)C(=O)CCCN(C)C)[C@@H](C)CN([C@H](C)CO)C(=O)c2cc(NS(=O)(=O)c3cn(C)cn3)ccc2O1 | inactive
COc1ccc(C#Cc2cccc(-c3nc(C(=O)N4CCN(Cc5ccccc5)CC4)cc4c3[C@H](CCO)N(S(=O)C(C)(C)C)C4)c2)cc1OC (some centres not stated) | inactive
C[C@@H]1CCCCO[C@H](CN(C)C(=O)NC2CCCCC2)[C@H](C)CN([C@@H](C)CO)C(=O)c2cc(NC(=O)Nc3ccc4c(c3)OCO4)ccc2O1 | inactive
C[C@@H]1CCCCO[C@@H](CN(C)C(=O)Nc2ccccc2)[C@@H](C)CN([C@@H](C)CO)C(=O)c2cc(NS(=O)(=O)c3ccccc3)ccc2O1 | inactive
O=C(O)c1ccccc1O | inactive
COc1ccc(NC(=O)N(C)C[C@H]2Oc3ccc(NS(C)(=O)=O)cc3CC(=O)N([C@@H](C)CO)C[C@H]2C)cc1 | inactive
C[C@@H]1CN([C@H](C)CO)C(=O)Cc2cc(NC(=O)CCN3CCOCC3)ccc2O[C@H]1CN(C)S(=O)(=O)c1cn(C)cn1 | inactive
COc1ccc2c3c(n(c2c1)C)[C@@H](CO)N(C[C@]13CCN(CC1)C(=O)c1ccncc1)C(=O)c1cnccn1 | inactive
CC(C)NC(=O)N(C)C[C@@H]1OCCCC[C@@H](C)Oc2ccc(NS(=O)(=O)c3cn(C)cn3)cc2C(=O)N([C@@H](C)CO)C[C@H]1C | inactive
C[C@@H]1CN([C@H](C)CO)C(=O)c2cc(NS(=O)(=O)c3ccccc3)ccc2O[C@@H](C)CCCCO[C@@H]1CN(C)Cc1ccc2c(c1)OCO2 | active
COCCOC(=O)N1C(=O)[C@@]2(c3ccccc31)[C@H](c1ccc(O)cc1)N1[C@H](c3ccccc3)[C@H](c3ccccc3)OC(=O)[C@H]1[C@@H]2C(=O)N1CCc2cc(OC)c(OC)cc2C1 | inactive
Cn1cnc(CCNC(=O)C[C@@H]2CC[C@H]3[C@@H](COC[C@H](O)CN3C(=O)C3CC3)O2)c1 | inactive
C[C@@H]1CN([C@H](C)CO)C(=O)c2cc(NC(=O)CCN3CCOCC3)ccc2O[C@@H]1CN(C)Cc1ccncc1 | inactive
COc1cccc(O)c1O | active
CCc1nc2ccc(C(=O)N3CCN(c4ccccc4)CC3)cn2c1N(CC)Cc1cccc(Br)c1 | inactive

system: S. aureus RN4220; assay: growth inhibition call (relative growth <= 0.2); details: 50 µM

SMILES | growth inhibition call
C[C@H](CO)N1C[C@H](C)[C@H](CN(C)Cc2ccccc2)Oc2ccc(NC(=O)Nc3ccc(C(F)(F)F)cc3)cc2C1=O | active
C[C@@H]1CN([C@H](C)CO)C(=O)c2cc(NS(=O)(=O)c3ccc(F)cc3)ccc2O[C@@H](C)CCCCO[C@@H]1CN(C)S(=O)(=O)c1cn(C)cn1 | inactive
C[C@@H]1CN([C@@H](C)CO)C(=O)c2cc(-c3ccc(F)cc3)cnc2O[C@@H]1CN(C)C(=O)Cc1ccccn1 | inactive
Cc1ccccc1S(=O)(=O)N1C[C@H](O)COC[C@H]2O[C@H](CC(=O)NCCc3ccncc3)CC[C@@H]21 | inactive
OCc1cnccn1 | inactive
CC(=O)N1CCC2(CC1)NC(=O)NC2=O | inactive
COc1ccc(C#Cc2ccc([C@@H]3[C@@H](CO)N4CCCCN(S(=O)(=O)c5cn(C)cn5)C[C@@H]34)cc2)cc1 | inactive
C[C@@H]1CN([C@@H](C)CO)C(=O)Cc2cc(NS(=O)(=O)c3cn(C)cn3)ccc2O[C@H]1CN(C)C | inactive
Cc1ccc(N(CC(=O)O)S(C)(=O)=O)cc1 | inactive
O=C(N[C@H](c1ccc(F)cc1)c1ccc2ccccc2n1)C1CCN(Cc2ccc(Oc3ccccc3)cc2)CC1 | inactive
O=C(C1=C[C@@H](c2coc3ccccc3c2=O)C[C@@H](OCCCCO)O1)N1CCN(Cc2ccc3c(c2)OCO3)CC1 | inactive
C[C@@H]1CN([C@H](C)CO)C(=O)Cc2cc(NC(=O)Nc3cccc4ccccc34)ccc2O[C@@H]1CN(C)C(=O)Nc1cccc2ccccc12 | inactive
C[C@@H]1CN([C@H](C)CO)C(=O)c2cc(NC(=O)Nc3cccc4ccccc34)ccc2O[C@@H]1CN(C)C(=O)Nc1ccccc1 | inactive
COC(=O)c1ccc2c(c1)NC(=O)CO2 | inactive
C[C@H](CO)N1C[C@H](C)[C@H](CN(C)S(C)(=O)=O)Oc2ccc(NC(=O)Nc3ccc4c(c3)OCO4)cc2CC1=O | inactive
C[N+](C)(C)CCCC[C@@H]1NC(=O)[C@@H]2C[C@H](C(=O)NCCCCCCNC(=O)CS)[C@H](c3ccc(O)cc3)N2C1=O | inactive
CO[C@@H]1CN(C)C(=O)c2cc(NC(=O)Nc3ccccc3)ccc2OC[C@@H](C)N(C(=O)CN(C)C)C[C@H]1C | inactive
CNC[C@@H]1OCCCC[C@@H](C)Oc2ccc(NC(=O)Nc3ccc(C(F)(F)F)cc3)cc2C(=O)N([C@H](C)CO)C[C@H]1C | inactive
C[C@H](CO)N1C[C@H](C)[C@H](CN(C)Cc2ccc(Oc3ccccc3)cc2)Oc2ccc(NC(=O)Nc3ccc4c(c3)OCO4)cc2CC1=O | inactive
OCc1cncnc1 | inactive

SMILES | growth inhibition call
Cc1cc(C(=O)N2CCNC(=O)C2(C)C)no1 | inactive
C[C@H]1CN([C@@H](C)CO)C(=O)c2cc(C3=CCCCC3)cnc2O[C@@H]1CN(C)C(=O)CN1CCOCC1 | inactive
COc1ccc(NC(=O)N(C)C[C@H]2OCCCC[C@@H](C)Oc3ccc(NS(=O)(=O)c4ccccc4)cc3C(=O)N([C@H](C)CO)C[C@H]2C)cc1 | inactive
C[C@@H]1CN([C@@H](C)CO)C(=O)c2cccc(NC(=O)Nc3ccc(F)cc3)c2O[C@H]1CN(C)Cc1ccc(-c2ccccc2)cc1 | inactive
C[C@H](CO)N1C[C@H](C)[C@H](CN(C)S(=O)(=O)c2ccccc2)Oc2ncc(-c3ccc(F)cc3)cc2C1=O | inactive
C[C@@H]1CCCCO[C@H](CN(C)C(=O)CCCN(C)C)[C@@H](C)CN([C@H](C)CO)C(=O)c2cc(NS(=O)(=O)c3cn(C)cn3)ccc2O1 | inactive
COc1ccc(C#Cc2cccc(-c3nc(C(=O)N4CCN(Cc5ccccc5)CC4)cc4c3[C@H](CCO)N(S(=O)C(C)(C)C)C4)c2)cc1OC (some centres not stated) | inactive
C[C@@H]1CCCCO[C@H](CN(C)C(=O)NC2CCCCC2)[C@H](C)CN([C@@H](C)CO)C(=O)c2cc(NC(=O)Nc3ccc4c(c3)OCO4)ccc2O1 | inactive
C[C@@H]1CCCCO[C@@H](CN(C)C(=O)Nc2ccccc2)[C@@H](C)CN([C@@H](C)CO)C(=O)c2cc(NS(=O)(=O)c3ccccc3)ccc2O1 | inactive
O=C(O)c1ccccc1O | inactive
COc1ccc(NC(=O)N(C)C[C@H]2Oc3ccc(NS(C)(=O)=O)cc3CC(=O)N([C@@H](C)CO)C[C@H]2C)cc1 | inactive
C[C@@H]1CN([C@H](C)CO)C(=O)Cc2cc(NC(=O)CCN3CCOCC3)ccc2O[C@H]1CN(C)S(=O)(=O)c1cn(C)cn1 | inactive
COc1ccc2c3c(n(c2c1)C)[C@@H](CO)N(C[C@]13CCN(CC1)C(=O)c1ccncc1)C(=O)c1cnccn1 | inactive
CC(C)NC(=O)N(C)C[C@@H]1OCCCC[C@@H](C)Oc2ccc(NS(=O)(=O)c3cn(C)cn3)cc2C(=O)N([C@@H](C)CO)C[C@H]1C | inactive
C[C@@H]1CN([C@H](C)CO)C(=O)c2cc(NS(=O)(=O)c3ccccc3)ccc2O[C@@H](C)CCCCO[C@@H]1CN(C)Cc1ccc2c(c1)OCO2 | inactive
COCCOC(=O)N1C(=O)[C@@]2(c3ccccc31)[C@H](c1ccc(O)cc1)N1[C@H](c3ccccc3)[C@H](c3ccccc3)OC(=O)[C@H]1[C@@H]2C(=O)N1CCc2cc(OC)c(OC)cc2C1 | inactive
Cn1cnc(CCNC(=O)C[C@@H]2CC[C@H]3[C@@H](COC[C@H](O)CN3C(=O)C3CC3)O2)c1 | inactive
C[C@@H]1CN([C@H](C)CO)C(=O)c2cc(NC(=O)CCN3CCOCC3)ccc2O[C@@H]1CN(C)Cc1ccncc1 | inactive
COc1cccc(O)c1O | inactive
CCc1nc2ccc(C(=O)N3CCN(c4ccccc4)CC3)cn2c1N(CC)Cc1cccc(Br)c1 | inactive

Source: the antibiotic and cytotoxicity screens of Wong et al. (2023)
